Experimental data taken from PubChem BioAssay AID493208 (National Center for Advancing Translational Sciences (NCATS), 2011).
Screen size: about 44,000 compounds; about 340 (0.77%) were called active. Another 5% or so got no clear call; they are omitted. The call rests on the fitted dose curve; in most records, active means well fitted inhibition curve with a large enough effect; inconclusive means small, poorly fitted or top-dose-only effect; inactive means flat fitted curve, though single readings scatter. The list shows a part of the results.

experiment: Acumen qHTS Assay for Inhibitors of the mTORC1 Signaling Pathway in MEF (Tsc2-/-, p53-/-) Cells: Sytravon; conditions: phospho-rpS6 immunofluorescence/PI, 24 h; series mostly up to 38.3 µM; activity change, negative = inhibition: at the top concentration;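 further: plate controls were DMSO for no effect and rapamycin for full effect; nearly all actives have a fitted effect of over 50% in size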
How it was run: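 Immunofluorescence of rpS6 phosphorylation in Tsc2-/-, p53-/- MEFs after 24 h compound exposure, normalized to propidium iodide signal. Activity is expressed as % positive cells, thresholded with 7.5 nM rapamycin.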

Activity change, negative = inhibition, inactive:
Cc1ccc(CNC(=O)c2ccc(N3CCCC3)c(NC(=O)Nc3ccc(F)c(Cl)c3)c2)cc1 0%
Cc1ccc2c(c1)-c1c(c(C(=O)N3CCN(c4cc(C)ccc4C)CC3)nn1C)CS2 3.87%
CCn1c(=O)cc(OCC(=O)N2CCN(c3cccc(C)c3C)CC2)c2ccccc21 -0.297%
Cc1cccc(NC(=O)CN2C(=O)C(c3ccc(F)cc3)=NC23CCCCCC3)c1 0.108%
COc1cccc(CNC(=O)CN2C(=O)COc3ccc(S(=O)(=O)N4CCOCC4)cc32)c1 0.0273%
CC(=O)c1c(C)oc2c1cc(NS(=O)(=O)c1ccc(C(C)(C)C)cc1)c1ccccc12 -2.42%
COc1ccc(NC(=O)Cn2c(=O)c3ccccc3n3nncc23)c(OC)c1 -13.2%
Cc1ccc(CNC(=O)C(C)n2nc(C)c3sc4ccccc4c3c2=O)cc1 (stereo unspecified) 3.02%
COc1cccc(C(=O)Oc2c(Sc3ccc(C)cc3)c(C)nn2C(C)(C)C)c1OC 1.61%
COC(=O)c1ccccc1NC(=O)CN1C(=O)COc2ccc(Cl)cc21 0.215%
COc1ccc(NC(=O)c2cc(S(=O)(=O)N3CCCC3)ccc2OC)cc1 -0.079%
CC(C)Cc1nn2c(=O)cc(COC(=O)c3ccc(NC(=O)C4CCCCC4)cc3)nc2s1 0%
CCOc1ccccc1NC(=O)c1ccc(F)c(S(=O)(=O)N2CCN(c3ccc(F)cc3)CC2)c1 13%
CCOc1ccc(C(=O)NCC(c2cccs2)S(=O)(=O)c2ccccc2)cc1 (stereo unspecified) -19.5%
COc1ccc(Nc2nc3ccc(Cl)cc3nc2-n2nc(C)cc2C)cc1 -1.34%
CCOc1ccc(C(=O)NCCSc2c(C)[nH]c3ccccc23)cc1OCC -1.35%
CCOc1ccc(NC(=O)c2cc(C)nc3c2c(C)nn3-c2ccc(C)cc2)cc1 2.74%
Cc1cccc(C(=O)N2CCc3cc(CNC(=O)CSc4ccccc4)ccc32)c1 -19.3%
Cc1ccccc1CNC(=O)CSc1nnc(C)c2c(C)n(-c3ccccc3)nc12 -3.8%
COc1ccccc1CNC(=O)c1cc2c(s1)-c1ccc(Cl)cc1SC2 -1.35%
CCOc1cccc(CC(=O)N2CCc3c([nH]c4ccc(OC)cc34)C2c2ccc(F)cc2)c1OCC (stereo unspecified) -0.233%
O=C(COc1ccc(Cl)cc1)Nc1nnc(S(=O)(=O)N2CCCCCC2)s1 0%
Cc1ccn2c(Nc3ccc4c(c3)OCCO4)c(-c3ccccc3O)nc2c1 -8.07%
CCCCOc1ccc(C2C(C(=O)Nc3ccccc3OC)=C(C)Nc3nnnn32)cc1OC (stereo unspecified) -19.3%
CC(=O)N1CCCc2cc(S(=O)(=O)N3CCC(C(=O)Nc4ccc(C)cc4Cl)CC3)ccc21 0.961%
CCN(CC)CCCNC(=O)CCC(=O)NNc1nc2ccccc2c2nc(C)nn12 -5.51%
COc1ccccc1N1CCN(C(CNC(=O)C(=O)NCc2cccnc2)c2cccnc2)CC1 (stereo unspecified) -0.903%
CCOC(=O)c1c(NC(=O)c2cc(-c3ccc(OC)c(OC)c3)on2)sc(C)c1C 13.9%
Cc1cc(NC(=O)Nc2nnc(N3CCCCCC3)s2)ccc1Br -1.89%
Cc1ccc(-c2nn(-c3ccccc3)c3c2cnc2ccccc23)cc1C 5.01%
Cc1ccc(NC(=O)c2oc3c(c2C)-c2[nH]ncc2CC3)c(Cl)c1 -1.83%
Cc1ccc(S(=O)(=O)N(CCc2ccccc2)CC(=O)Nc2ccccc2C)cc1 -7.21%
Cn1cnc(S(=O)(=O)N2CCCC(C(=O)NCc3ccc(F)cc3)C2)c1 (stereo unspecified) 14.3%
COc1ccc(OC)c(-c2noc(N3CCN(c4ccc(Cl)cc4)CC3)n2)c1 -4.85%
Cc1cc(C)cc(NS(=O)(=O)c2ccc3[nH]cc(C(=O)NCCc4ccccc4)c(=O)c3c2)c1 0.436%
CCOc1ccc(NC(=O)C(=O)NCCc2csc(-c3ccc(C(F)(F)F)cc3)n2)cc1 0.279%
Cc1ccc(C(=O)N2CCn3c4c(c5cc(C)ccc53)CCCC42)cc1 (stereo unspecified) -27.8%
COc1ccc(CCNC(=O)c2ccc3c(c2)N(Cc2ccccc2)CCS3)cc1OC -5.77%
CC(C)NC(=O)c1ccc2c(c1)N(Cc1cccc(Cl)c1)C(=O)c1ccccc1S2=O (stereo unspecified) -0.245%
CCc1ccccc1NS(=O)(=O)c1ccc2c(c1)CCCN2C(=O)C1CCC1 -9.46%
Cc1nn2c(=O)cc(COC(=O)c3ccccc3NC(=O)c3cccs3)nc2s1 0%
COc1ccc(NC(=O)CN2CCN(Cc3ccccc3Cl)S2(=O)=O)cc1Cl 2.41%
COC(=O)c1sc2c(c1C)c(=O)n(-c1ccccc1)c(=O)n2CC(=O)Nc1cccc(C)c1 -16%
COc1cc(OC)c(NC(=O)N2CCC(CN3CCOCC3)CC2)cc1Cl -0.174%
CN1CCN(Cc2c(O)ccc3cc(-c4ccc(Cl)cc4)c(=O)oc23)CC1 0%
CCN(C(=O)Cn1c(=O)oc2cc(S(=O)(=O)N3CCCCC3)ccc21)c1ccccc1 0.473%
Cc1c(C)c2cc3c(c(C)c2oc1=O)OCN(CCc1ccccc1)C3 -9.54%
COc1cccc(CNC(=O)c2c(C)oc3ncnc(N4CCOCC4)c23)c1 -2.4%
COc1ccc(N2CCN(C(=O)C3Cc4ccccc4N3C(C)=O)CC2)cc1 (stereo unspecified) 0%
CCOc1cc(CNC(=O)C2CCN(c3nc4ccccc4[nH]3)CC2)cc(OCC)c1OCC 7.69%
COc1cccc(CC(=O)Nc2ccc(-c3nc4ccccc4s3)cc2Cl)c1 -1.53%
Cc1cc(C)cc(N2CCn3c2nc2c3c(=O)n(C/C=C/c3ccccc3)c(=O)n2C)c1 -8.46%
Cc1ccc(C)c(NC(=O)CCOc2ccccc2)c1 -2.42%
Cc1ccc2nc(-c3ccc(F)cc3)c(NC(C)(C)CC(C)(C)C)n2c1 -0.248%
Cc1c(Cl)cccc1NC(=O)CSc1ccc(-c2ccccn2)nn1 0.497%
O=C(NCc1cccc(Cl)c1)c1cc2c(s1)-c1ccccc1SC2 -2.7%
O=C(Cn1c(=O)n(-c2ccc(Cl)cc2)c(=O)c2c3c(sc21)CCCCC3)Nc1cccc(Cl)c1 -8.83%
Cc1ccc2cccc(NC(=O)c3cccc4c(Br)cccc34)c2n1 9.8%
COc1cccc(CNS(=O)(=O)c2ccc3c(c2)CC(C)N3C(=O)C2CCC2)c1 (stereo unspecified) -2.08%
COc1ccc(C)cc1NC(=O)C(=O)NCC(c1cccnc1)N1CCN(c2ccccc2F)CC1 (stereo unspecified) -3.17%
Cc1cc(C)c2nc(N3CCCC(C(=O)NCc4ccccc4F)C3)sc2c1 (stereo unspecified) 0%
CCn1c(=O)n(-c2ccc3c(c2)OCO3)c2nc(-c3cccc(OC)c3OC)nc(C(N)=O)c21 1.24%
CCCn1cc(S(=O)(=O)c2ccc(C)c(C)c2)c(=O)c2cc(F)c(N3CCC(C)CC3)cc21 0.543%
COc1ccc(N2CCN(C(=O)c3ccc4c(c3)N(Cc3cccc(Cl)c3)C(=O)c3ccccc3S4(=O)=O)CC2)cc1 -3.59%
CCc1ccccc1NC(=O)Cn1c(=O)n(-c2cccc(C)c2)c(=O)c2c1c1cc(OC)ccc1n2C -2.08%
CC(C)OCCCNC(=O)Cc1ccc(NC(=O)N2CCCCc3ccccc32)cc1 0.721%
CCOc1ccccc1N(C)C(=O)c1cc2c(s1)-c1ccccc1OC2 -2.02%
CCOC(=O)CC(NC(=O)c1cc2c(=O)n3cccc(C)c3nc2s1)c1ccc(OCC)c(OC)c1 (stereo unspecified) 0.686%
Cc1ccc(NC(=O)Cn2c(=O)n(CC(=O)NCCc3ccccc3)c(=O)c3ccccc32)cc1C 0.394%
CCCCc1nc(SCC(=O)Nc2ccc(S(N)(=O)=O)cc2)n[nH]1 3.48%
COc1cccc(NC(=O)C2CCN(S(=O)(=O)c3c(C)noc3C)CC2)c1 -6.46%
Cc1ccc(C(=O)COC(=O)c2cc(-c3cccs3)nc3ccccc23)cc1 6.13%
CCc1cccc(NC(=O)Nc2cn(C)c(=O)c3ccccc23)c1 0.0361%
Cc1ccc(S(=O)(=O)c2cn(CC(=O)Nc3ccc(F)cc3)c3cc4c(cc3c2=O)OCO4)cc1 -14.1%
COc1ccc(-c2noc(CCC(=O)Nc3cccc(C)c3C)n2)cc1OC 1.52%
Cc1cccc(NC(=O)CSc2nc(=O)n(CCN3CCOCC3)c3c2CCC3)c1C 0.346%
CCCC(=O)NCc1nc2cccnc2n1Cc1ccc(F)cc1 2.4%
Cc1cccc(Cn2nnc3c(=O)[nH]c(C4CCN(C(=O)c5ccccc5F)CC4)nc32)c1 -4.83%
O=C(Nc1cc(-c2nc3ccccc3o2)ccc1Cl)c1cccc2c(Cl)cccc12 2.38%
Cc1ccc(NC(=O)Cn2c(=O)n(Cc3ccc4c(c3)OCO4)c(=O)c3ccc(C(=O)NC4CCCCC4)cc32)cc1 5.32%
CCOC(=O)c1ccc(NC(=O)Cc2coc3cc(C)cc(C)c23)cc1 -10.6%
COc1ccc(S(=O)(=O)NCc2cccn2Cc2cccc(C)c2)cc1OC 0%
CCCCc1nn2c(=O)cc(COC(=O)c3ccccc3NC(=O)C3CCCCC3)nc2s1 1.11%
CCN(C(=O)CSc1nnc(C)n2c1cc1occc12)c1ccccc1 -2.15%
CCOc1ccc(NC(=O)c2cc3c(=O)n4cccc(C)c4nc3s2)cc1 1.24%
Cc1cc([N+](=O)[O-])ccc1NC(=O)CSc1nccn1C -0.561%
O=C(CSc1cn(CC(=O)N2CCOCC2)c2ccccc12)Nc1ccccc1C(F)(F)F -0.834%
COc1ccc(CNC(=O)c2cnc(N3CCCC3)nc2C)cc1 10.1%
CCOC(=O)CSc1nc2c([nH]c3ccccc32)c(=O)n1-c1ccc(OCC)cc1 -5.5%
Cc1ccccc1C(=O)Nc1nc2c(s1)CC(C(C)(C)C)CC2 (stereo unspecified) 0%
COc1ccc(-c2c(C)c3ccc(O)c(CN4CCN(C)CC4)c3oc2=O)cc1OC 4.35%
Cc1cccc2sc(N(Cc3cccnc3)C(=O)C3CCCCC3)nc12 -3.79%
COc1ccc(S(=O)(=O)c2cn(CC(=O)Nc3ccccc3)c3ccc(Cl)cc3c2=O)cc1 -11.2%
COc1ccc(CSc2nc3ccncc3n2Cc2nc(-c3ccc(OC)c(OC)c3)oc2C)cc1 -4.72%
COc1ccccc1CNC(=O)Nc1ccc2c(c1)N(C)C(=O)c1ccccc1S2 -23.6%
O=C(CSc1nc2c([nH]c3ccccc32)c(=O)n1-c1ccc(F)cc1)N1CCCCCC1 -15.2%
